The campaign covered roughly 110,000 compounds. About 230 (0.21%) showed an effect of 50% or more. The list shows a part of the results.
The molecules below were run against DPAP1 (Plasmodium falciparum, UniProt Q8IIJ9) (assay: primary screen, percent inhibition; read by cleavage of a fluorogenic dipeptide substrate; higher = more effect of the substance).
Parameters: species or system P. falciparum D10 trophozoite lysates; single well
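Further: 30 min substrate incubation versus DMSO and 10 µM JCP410 controls.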

Chain of DPAP1 (Q8IIJ9 whole entry, looked up): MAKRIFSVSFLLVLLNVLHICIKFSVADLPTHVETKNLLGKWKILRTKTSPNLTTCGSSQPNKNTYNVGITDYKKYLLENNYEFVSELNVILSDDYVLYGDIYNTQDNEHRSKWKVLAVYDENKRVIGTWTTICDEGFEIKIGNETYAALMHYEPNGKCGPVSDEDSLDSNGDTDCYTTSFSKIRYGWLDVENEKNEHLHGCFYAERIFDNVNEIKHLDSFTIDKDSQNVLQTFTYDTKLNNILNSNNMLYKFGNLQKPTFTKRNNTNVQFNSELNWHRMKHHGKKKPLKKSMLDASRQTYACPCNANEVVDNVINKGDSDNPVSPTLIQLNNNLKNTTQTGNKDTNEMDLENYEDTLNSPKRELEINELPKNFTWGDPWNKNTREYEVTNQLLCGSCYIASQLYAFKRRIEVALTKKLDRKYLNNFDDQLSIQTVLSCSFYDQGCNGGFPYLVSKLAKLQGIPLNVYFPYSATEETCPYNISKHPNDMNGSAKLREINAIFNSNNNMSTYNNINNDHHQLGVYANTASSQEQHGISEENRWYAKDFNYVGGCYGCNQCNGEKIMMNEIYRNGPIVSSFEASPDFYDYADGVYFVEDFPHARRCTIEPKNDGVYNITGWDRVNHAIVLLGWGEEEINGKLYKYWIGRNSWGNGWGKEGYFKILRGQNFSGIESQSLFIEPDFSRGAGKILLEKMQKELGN

| Structure (SMILES) | % Inhibition @ 10 uM [%] |
| --- | --- |
| O=C(CNC(=S)N(Cc1ccc(F)cc1)C1CCCCC1)N1CCCC1 | 4.47 |
| COc1ccc(Cc2nnc(NC3CCCCC3)nc2O)cc1 | -2.04 |
| CCOC(=O)N1CCN(Cc2cccc(F)c2)CC1 | -9.93 |
| COc1ccc(C(=O)Nc2ccc(S(=O)(=O)N3CCC(C)CC3)cc2)c(OC)c1 | 13.5 |
| O=C(O)c1ccc(S(=O)(=O)c2ccc3c(c2)C(=O)N(c2nccs2)C3=O)cc1 | 3.25 |
| O=C(ON1C(=O)c2cccc3cccc(c23)C1=O)c1ccncc1 | -2.75 |
| CCCCOc1ccc(C(=O)Nc2cc3ccccc3oc2=O)cc1 | 0.997 |
| Cc1cccc(-c2nc(CS(=O)CC(=O)N(C)CCC#N)c(C)o2)c1 (centres unmarked) | 0.689 |
| Cc1ccc(Cl)cc1N1CCN(S(=O)(=O)c2ccccc2)CC1 | -3.39 |
| Cc1ccc(-c2ccc(=O)n(CCC(=O)NC3CCCC(C)C3C)n2)cc1 (centres unmarked) | -0.0542 |
| CCOc1ccccc1C(=O)Nc1ccc(C)cn1 | 1.15 |
| O=C(Nc1ccc(-c2nc3ccccc3s2)cc1)c1ccc(S(=O)(=O)N2CCCCC2)cc1 | -3.93 |
| O=C(CSc1ncccc1C(=O)O)NCCC1=CCCCC1 | 4.36 |
| O=C(Cn1cc(/C=C2\NC(=O)N(Cc3ccccc3)C2=O)c2ccccc21)N1CCOCC1 | 0.408 |
| Cc1cccc(CCNC(=O)CN(C)S(=O)(=O)c2ccc3nc(C)sc3c2)c1 | 5.65 |
| COc1ccc(/C=C2\CC/C(=C\c3ccc(OC)c(OC)c3)C2=O)cc1OC | -2.12 |
| OCC1CCCCN1Cc1ccc(Cl)cc1Cl (centres unmarked) | -1.5 |
| COc1ccc(OC)c(N2Cc3ccc(OC)c(OC)c3C2=O)c1 | -5.73 |
| CC(=O)Nc1ccc(CN2CCc3ccccc3C2)cc1 | -1.07 |
| CC(=O)N1CCN(Cc2c(F)cccc2Cl)CC1 | -3.15 |
| O=C1C2CCCCC2C(=O)N1CNc1ccc(F)cc1 (centres unmarked) | -6.18 |
| CC(=O)c1cc(-c2ccccc2)n(CC(=O)N2CCC(C)CC2)c1C | 3.07 |

| Structure (SMILES) | % Inhibition @ 10 uM [%] |
| --- | --- |
| CN(CC(=O)O)C(=O)c1cn(-c2ccccc2)nc1-c1ccccc1 | -2.77 |
| CCC(=O)N1c2ccccc2N=C2CC(C)(C)CC(O)=C2C1c1cc(OC)ccc1OC (centres unmarked) | -2.8 |
| CCc1ccc(C2C3=C(O)CCCC3=NC(C)=C2C(=O)Nc2ccccc2OC)cc1 (centres unmarked) | 0.726 |
| COc1ccc(CC(C)(NC(=O)OCc2ccccc2)C(=O)NCC#N)cc1OC (centres unmarked) | 0.079 |
| CCC(C)Oc1ccc(/C=C2/SC(=O)N(CC)C2=O)cc1OC (centres unmarked) | -1.88 |
| O=C1CC(N2CCN(c3ccccn3)CC2)C(=O)N1c1ccccc1 (centres unmarked) | -5.14 |
| CCN(/C=N/c1sc2c(c1C#N)CCCC2)CC | -6.22 |
| CCOc1ccc(/C=C2/C=C(c3ccc(F)cc3)OC2=O)cc1 | 1.84 |
| COc1cc(/C=C2\NC(=S)NC2=O)cc(OC)c1 | 3.42 |
| COc1ccc(C(=O)NCCC2(c3ccc(C)cc3)CCOC(C)(C)C2)cc1 (centres unmarked) | 1.83 |
| C=CCSc1nc(O)c(Cc2ccccc2)c(O)n1 | -5.26 |
| O=C(CSc1nc(-c2ccc(F)cc2)[nH]c1-c1ccccc1)Nc1nccs1 | -3.39 |
| Cc1ccc(Nc2nc(-c3ccc(F)cc3)cs2)cc1 | 3.92 |
| CCOc1cccc(-c2nc(S)c3c(n2)Oc2c(O)cccc2C3)c1 | 4.23 |
| O=C(NC(=O)c1ccc(Cl)cc1Cl)OC[C@@H]1CCCN2CCCCC12 (some centres unmarked) | 4.19 |
| O=C1OC(c2ccc(Cl)c(Cl)c2)=N/C1=C\c1ccc2c(c1)OCO2 | -3.33 |
| CC12c3ccccc3C(c3ccccc31)C1C(=O)N(c3ccc4c(c3)OCO4)C(=O)C12 (centres unmarked) | 10.1 |
| CCCCNC(=O)CN1N=C(c2ccc(Cl)cc2)CCC1=O | 2.18 |
| Cc1ccc(OCC(O)CN2CCN(CCN3C(=O)c4cccc5cccc(c45)C3=O)CC2)c(C)c1 (centres unmarked) | -5.23 |
| O=C(C1CCCN1S(=O)(=O)c1cccc2cccnc12)N1CC=C(c2ccccc2)CC1 (centres unmarked) | 0.981 |
| CSCCC(NS(=O)(=O)c1cccs1)C(=O)NCc1ccccc1Cl (centres unmarked) | 1.76 |
| O=C(O)CCCC(=O)Nc1cccc2cccnc12 | -6.71 |

| Structure (SMILES) | % Inhibition @ 10 uM [%] |
| --- | --- |
| COc1ccc(CNCc2c(C(=O)O)c(C)n(Cc3ccc(C)cc3)c2C)cc1 | -1.92 |
| CC(C)CCn1c(Sc2nc3ccccc3[nH]2)nc2c1c(=O)[nH]c(=O)n2C | 6.29 |
| OC1CCN(Cc2cccs2)CC1 | 1.63 |
| CCOc1ccccc1C1C=C(c2cccs2)Nc2ncnn21 (centres unmarked) | 3.32 |
| O=C(O)c1cccc(-n2nnnc2SCc2ccccn2)c1 | -0.0735 |
| OC1(c2ccc(Cl)cc2)CCN(Cc2cccc(F)c2)CC1 | 0.273 |
| CN(CN1C(=O)C(=O)c2ccccc21)c1ccccc1 | 5.31 |
| CCCOc1ccccc1C1CC(=O)Nc2c1ccc1ccccc21 (centres unmarked) | -0.297 |
| O=C(CN1C(=O)c2ccccc2C1=O)Nc1ccc(Br)cc1C(=O)O | -4.21 |
| Cc1cc(N2CCOCC2)ccc1/C=C1/SC(=O)N(C)C1=O | 1.59 |
| CCCOc1ccc(CNC(=O)C(C)n2sc3ccccc3c2=O)cc1 (centres unmarked) | -2.13 |
| Cc1ccc(N(CC(=O)NCc2ccco2)S(=O)(=O)c2ccc(C)cc2)cc1 | 1.61 |
| O=C(NCc1cccnc1)C1CC(c2ccccc2F)=NO1 (centres unmarked) | -5.79 |
| CCOC(=O)N1CCC(NC(=O)C2CCCN(S(C)(=O)=O)C2)CC1 (centres unmarked) | 2.18 |
| COc1cc(OC)c(CN2CCc3ccccc3C2)cc1Br | -1.92 |
| COc1ccccc1CNc1nc(-c2ccc(C)cc2)nc2ccccc12 | 2.06 |
| Nc1onc(-c2ccccc2)c1-c1ccccc1 | 4.32 |
| CCOc1ccc2nc(N3CCC(C(=O)N4CCCC4)CC3)sc2c1 | 4.95 |
| CCCc1[nH]nc2c1C(c1cccs1)C(C#N)=C(N)O2 (centres unmarked) | 2.36 |
| Cn1cc(NC(=O)NCCN(Cc2ccco2)C2CCCC2)c2ccccc2c1=O | 1.81 |
| O=C(Cn1c(=O)c2cccn2c2cccnc21)NCCCN1CCOCC1 | -8.52 |
